{"source": "the supplement of paper PMC8728848", "assay_in_all_cases": "glycan array binding signal (z-score within array); higher = stronger binding", "settings_in_all_cases": "glycan notation: IUPAC condensed, linker removed", "key": {"Gal3S(b1-4)Glc": {"target": "Gal3S(b1-4)Glc", "in_short": "(§1)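 Negative Z-scores can be read as non-binding. The Z-score is calculated within each array and then averaged across arrays of one protein sequence at different concentrations or buffers and across linkers. Arrays, 3228 in all, were curated from the Consortium for Functional Glycomics database and kept only where the protein sequence was available.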"}, "Gal3S(b1-4)Glc6S": {"target": "Gal3S(b1-4)Glc6S", "in_short": "as §1"}, "Gal3S(b1-4)GlcNAc": {"target": "Gal3S(b1-4)GlcNAc", "in_short": "as §1"}, "[1]": {"target": "Gal3S(b1-4)[Fuc(a1-3)]Glc6S", "in_short": "as §1"}, "[2]": {"target": "Gal3S(b1-4)[Fuc(a1-3)]GlcNAc", "in_short": "as §1"}, "[3]": {"target": "Gal3S(b1-4)[Fuc(a1-3)]GlcNAc6S", "in_short": "as §1"}, "Gal3S4S(b1-4)GlcNAc": {"target": "Gal3S4S(b1-4)GlcNAc", "in_short": "as §1"}, "Gal3S6S(b1-4)GlcNAc": {"target": "Gal3S6S(b1-4)GlcNAc", "in_short": "as §1"}, "Gal3S6S(b1-4)GlcNAc6S": {"target": "Gal3S6S(b1-4)GlcNAc6S", "in_short": "as §1"}, "Gal4S(b1-4)GlcNAc": {"target": "Gal4S(b1-4)GlcNAc", "in_short": "as §1"}, "Gal4S6S(b1-4)GlcNAc": {"target": "Gal4S6S(b1-4)GlcNAc", "in_short": "as §1"}, "Gal6P(b1-4)GlcNAc": {"target": "Gal6P(b1-4)GlcNAc", "in_short": "as §1"}, "Gal6S(b1-3)GlcNAc": {"target": "Gal6S(b1-3)GlcNAc", "in_short": "as §1"}, "Gal6S(b1-3)GlcNAc6S": {"target": "Gal6S(b1-3)GlcNAc6S", "in_short": "as §1"}, "Gal6S(b1-4)Glc": {"target": "Gal6S(b1-4)Glc", "in_short": "as §1"}, "Gal6S(b1-4)Glc6S": {"target": "Gal6S(b1-4)Glc6S", "in_short": "as §1"}, "Gal6S(b1-4)GlcNAc": {"target": "Gal6S(b1-4)GlcNAc", "in_short": "as §1"}, "Gal6S(b1-4)GlcNAc6S": {"target": "Gal6S(b1-4)GlcNAc6S", "in_short": "as §1"}, "GalNAc(a1-3)Gal": {"target": "GalNAc(a1-3)Gal", "in_short": "as §1"}, "GalNAc(a1-3)GalNAc": {"target": "GalNAc(a1-3)GalNAc", "in_short": "as §1"}, "[4]": {"target": "GalNAc(a1-3)GalNAc(b1-3)Gal(a1-4)Gal(b1-4)Glc", "in_short": "as §1"}, "[5]": {"target": "GalNAc(a1-3)GalNAc(b1-3)Gal(a1-4)Gal(b1-4)GlcNAc", "in_short": "as §1"}, "GalNAc(b1-3)Gal": {"target": "GalNAc(b1-3)Gal", "in_short": "as §1"}, "[6]": {"target": "GalNAc(b1-3)Gal(a1-4)Gal(b1-4)GlcNAc", "in_short": "as §1"}, "[7]": {"target": "GalNAc(b1-3)Gal(a1-4)Gal(b1-4)GlcNAc(b1-3)Gal(b1-4)Glc", "in_short": "as §1"}, "[8]": {"target": "GalNAc(b1-3)Gal(a1-6)Gal(b1-4)Glc", "in_short": "as §1"}, "GalNAc(b1-3)GalNAc": {"target": "GalNAc(b1-3)GalNAc", "in_short": "as §1"}, "GalNAc(b1-3)GlcNAc": {"target": "GalNAc(b1-3)GlcNAc", "in_short": "as §1"}, "GalNAc(b1-4)Gal(b1-4)Glc": {"target": "GalNAc(b1-4)Gal(b1-4)Glc", "in_short": "as §1"}, "GalNAc(b1-4)GlcNAc": {"target": "GalNAc(b1-4)GlcNAc", "in_short": "as §1"}, "[9]": {"target": "GalNAc(b1-4)GlcNAc(b1-2)Man", "in_short": "as §1"}, "[10]": {"target": "GalNAc(b1-4)GlcNAc(b1-2)Man(a1-3)[GalNAc(b1-4)GlcNAc(b1-2)Man(a1-6)]Man(b1-4)GlcNAc(b1-4)GlcNAc", "in_short": "as §1"}, "[11]": {"target": "GalNAc(b1-4)GlcNAc(b1-3)GalNAc(b1-4)GlcNAc", "in_short": "as §1"}, "GalNAc(b1-4)GlcNAc6S": {"target": "GalNAc(b1-4)GlcNAc6S", "in_short": "as §1"}, "GalNAc(b1-6)GalNAc": {"target": "GalNAc(b1-6)GalNAc", "in_short": "as §1"}, "GalNAc3S(b1-4)GlcNAc": {"target": "GalNAc3S(b1-4)GlcNAc", "in_short": "as §1"}, "GalNAc3S(b1-4)GlcNAc3S": {"target": "GalNAc3S(b1-4)GlcNAc3S", "in_short": "as §1"}, "[12]": {"target": "GalNAc3S(b1-4)[Fuc(a1-3)]GlcNAc", "in_short": "as §1"}, "GalNAc4S6S(b1-4)GlcNAc": {"target": "GalNAc4S6S(b1-4)GlcNAc", "in_short": "as §1"}, "GalNAc6S(b1-4)GlcNAc": {"target": "GalNAc6S(b1-4)GlcNAc", "in_short": "as §1"}, "Glc(a1-4)Glc": {"target": "Glc(a1-4)Glc", "in_short": "as §1"}, "[13]": {"target": "Glc(a1-4)Glc(a1-4)Glc(a1-4)Glc", "in_short": "as §1"}, "Glc(a1-6)Glc(a1-6)Glc": {"target": "Glc(a1-6)Glc(a1-6)Glc", "in_short": "as §1"}, "[14]": {"target": "Glc(a1-6)Glc(a1-6)Glc(a1-6)Glc", "in_short": "as §1"}, "Glc(b1-4)Glc": {"target": "Glc(b1-4)Glc", "in_short": "as §1"}}, "note": "Some of the results follow."}
{"binder": "PLU (Photorhabdus luminiscence) (protein) HHHHHHENLYFQSSIVFASIDPRSNPLQTSSQNYVDIPGLKLDVSKYSNSPCLTALITLNIPTPYASGNNFPGGNFAIVTDQGEQLAYGGFTYSSKIPENSGRMPFTLVARYSLASNVSTIKAQWSNIRGSTVHIDSYASISAVIQCNQLV", "values": [{"measurement": "glycan array binding signal (z-score)", "setting": "Gal3S(b1-4)Glc", "value": -0.316}, {"measurement": "glycan array binding signal (z-score)", "setting": "Gal3S(b1-4)Glc6S", "value": -0.352}, {"measurement": "glycan array binding signal (z-score)", "setting": "Gal3S(b1-4)GlcNAc", "value": -0.221}, {"measurement": "glycan array binding signal (z-score)", "setting": "[1]", "value": -0.317}, {"measurement": "glycan array binding signal (z-score)", "setting": "[2]", "value": -0.272}, {"measurement": "glycan array binding signal (z-score)", "setting": "[3]", "value": -0.233}, {"measurement": "glycan array binding signal (z-score)", "setting": "Gal3S4S(b1-4)GlcNAc", "value": -0.346}, {"measurement": "glycan array binding signal (z-score)", "setting": "Gal3S6S(b1-4)GlcNAc", "value": -0.276}, {"measurement": "glycan array binding signal (z-score)", "setting": "Gal3S6S(b1-4)GlcNAc6S", "value": -0.195}, {"measurement": "glycan array binding signal (z-score)", "setting": "Gal4S(b1-4)GlcNAc", "value": -0.274}, {"measurement": "glycan array binding signal (z-score)", "setting": "Gal4S6S(b1-4)GlcNAc", "value": -0.277}, {"measurement": "glycan array binding signal (z-score)", "setting": "Gal6P(b1-4)GlcNAc", "value": -0.374}, {"measurement": "glycan array binding signal (z-score)", "setting": "Gal6S(b1-3)GlcNAc", "value": -0.249}, {"measurement": "glycan array binding signal (z-score)", "setting": "Gal6S(b1-3)GlcNAc6S", "value": -0.322}, {"measurement": "glycan array binding signal (z-score)", "setting": "Gal6S(b1-4)Glc", "value": -0.291}, {"measurement": "glycan array binding signal (z-score)", "setting": "Gal6S(b1-4)Glc6S", "value": -0.284}, {"measurement": "glycan array binding signal (z-score)", "setting": "Gal6S(b1-4)GlcNAc", "value": -0.224}, {"measurement": "glycan array binding signal (z-score)", "setting": "Gal6S(b1-4)GlcNAc6S", "value": -0.355}, {"measurement": "glycan array binding signal (z-score)", "setting": "GalNAc(a1-3)Gal", "value": -0.351}, {"measurement": "glycan array binding signal (z-score)", "setting": "GalNAc(a1-3)GalNAc", "value": -0.149}, {"measurement": "glycan array binding signal (z-score)", "setting": "[4]", "value": -0.313}, {"measurement": "glycan array binding signal (z-score)", "setting": "[5]", "value": -0.271}, {"measurement": "glycan array binding signal (z-score)", "setting": "GalNAc(b1-3)Gal", "value": -0.24}, {"measurement": "glycan array binding signal (z-score)", "setting": "[6]", "value": -0.301}, {"measurement": "glycan array binding signal (z-score)", "setting": "[7]", "value": -0.246}, {"measurement": "glycan array binding signal (z-score)", "setting": "[8]", "value": -0.329}, {"measurement": "glycan array binding signal (z-score)", "setting": "GalNAc(b1-3)GalNAc", "value": -0.244}, {"measurement": "glycan array binding signal (z-score)", "setting": "GalNAc(b1-3)GlcNAc", "value": -0.382}, {"measurement": "glycan array binding signal (z-score)", "setting": "GalNAc(b1-4)Gal(b1-4)Glc", "value": -0.36}, {"measurement": "glycan array binding signal (z-score)", "setting": "GalNAc(b1-4)GlcNAc", "value": -0.287}, {"measurement": "glycan array binding signal (z-score)", "setting": "[9]", "value": -0.29}, {"measurement": "glycan array binding signal (z-score)", "setting": "[10]", "value": -0.358}, {"measurement": "glycan array binding signal (z-score)", "setting": "[11]", "value": -0.3}, {"measurement": "glycan array binding signal (z-score)", "setting": "GalNAc(b1-4)GlcNAc6S", "value": -0.287}, {"measurement": "glycan array binding signal (z-score)", "setting": "GalNAc(b1-6)GalNAc", "value": -0.216}, {"measurement": "glycan array binding signal (z-score)", "setting": "GalNAc3S(b1-4)GlcNAc", "value": -0.222}, {"measurement": "glycan array binding signal (z-score)", "setting": "GalNAc3S(b1-4)GlcNAc3S", "value": -0.238}, {"measurement": "glycan array binding signal (z-score)", "setting": "[12]", "value": -0.132}, {"measurement": "glycan array binding signal (z-score)", "setting": "GalNAc4S6S(b1-4)GlcNAc", "value": -0.267}, {"measurement": "glycan array binding signal (z-score)", "setting": "GalNAc6S(b1-4)GlcNAc", "value": -0.332}, {"measurement": "glycan array binding signal (z-score)", "setting": "Glc(a1-4)Glc", "value": -0.232}, {"measurement": "glycan array binding signal (z-score)", "setting": "[13]", "value": -0.276}, {"measurement": "glycan array binding signal (z-score)", "setting": "Glc(a1-6)Glc(a1-6)Glc", "value": -0.299}, {"measurement": "glycan array binding signal (z-score)", "setting": "[14]", "value": -0.248}, {"measurement": "glycan array binding signal (z-score)", "setting": "Glc(b1-4)Glc", "value": -0.223}]}
